{
  "source": "PubChem BioAssay (Tox21)",
  "key": {"[1]": {"experiment": "qHTS RealTime-Glo MT Cell Viability Assay in HEK293 cells - 16 hour (AID 1224872); also: nearly all actives have a fitted effect of over 50% in size; also: potency is read from the fitted curve at half-maximal effect", "summary_of_the_method": "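Quantitative high-throughput screen of the Tox21 10K library in HEK293: cells and RealTime-Glo reagents plated together, compound added at 5 h, luminescence monitored through 40 h at 37 C.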"}, "[2]": {"experiment": "qHTS RealTime-Glo MT Cell Viability Assay in HEK293 cells - 40 hour (AID 1224874); also: potency is read from the fitted curve at half-maximal effect; nearly all actives have a fitted effect of over 50% in size", "conditions": "RealTime-Glo luminescence; max response: stronger effect = lower value", "summary_of_the_method": "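Cells were seeded together with NanoLuc luciferase and a prosubstrate that viable cells reduce to a luciferase substrate. After a 5 h incubation at 37 C/5% CO2, compounds were added and luminescence was measured repeatedly during 40 h of treatment.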"}, "[3]": {"experiment": "qHTS RealTime-Glo MT Cell Viability Assay in HepG2 cells - 32 hour (AID 1224877); also: potency is read from the fitted curve at half-maximal effect; nearly all actives have a fitted effect of over 55% in size", "summary_of_the_method": "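Compound treatment began 5 h after plating HepG2 cells (600/well) with NanoLuc luciferase and prosubstrate. Plates stayed at 37 C for 40 h; luminescence was captured at six time points, 0 h through 40 h.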"}, "[4]": {"experiment": "A CellTox Green Cytotoxicity Assay to monitor cytotoxicity in HepG2 cells - 16 hour (AID 1224876); also: nearly all actives have a fitted effect of over 45% in size", "summary_of_the_method": "(§1)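 Read-out is fluorescence of a cyanine dye excluded from live cells that stains DNA of dead HepG2 cells, with signal proportional to cytotoxicity. Plates were read at 0, 8, 16, 24, 32 and 40 h after compound addition.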"}, "[5]": {"experiment": "A CellTox Green Cytotoxicity Assay to monitor cytotoxicity in HepG2 cells - 40 hour (AID 1224879)", "summary_of_the_method": "as §1"}, "[6]": {"experiment": "A CellTox Green Cytotoxicity Assay to monitor cytotoxicity in HEK293 cells - 24 hour (AID 1224875)", "summary_of_the_method": "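Nonlytic real-time cytotoxicity: HEK293 + CellTox Green reagent plated, 5 h preincubation, pintool compound addition (23 nL in DMSO), 37 C for 40 h, fluorescence measured at successive time points.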"}},
  "note": "Several values for one entry are separate records, joined by “and”; a condition that tells them apart may be missing. Equal values may be shown once. The shares of active, inactive and inconclusive entries below differ from those in the screen. For some of these results: Potencies of inconclusive entries are doubtful fits and often do not repeat. Activity calls are given as the source filed them. Calls follow the shape of the dose curve; as a rule, active = well fitted curve in the direction sought with a large enough effect in the repeat runs; inconclusive = weak or mixed curves; inactive = no such curve, though single readings can be large; an effect the other way counts as inactive or inconclusive. Tags tell the direction and shape of the fitted curve.",
  "data": [
    {"smiles": "CC(C)C[C@H]1C(=O)N2CCC[C@H]2[C@]2(O)O[C@](NC(=O)[C@@H]3C=C4c5cccc6[nH]c(Br)c(c56)C[C@H]4N(C)C3)(C(C)C)C(=O)N12", "values": [
      {"measurement": "Potency", "setting": "[1]", "result": "inconclusive: 6.59 µM [cytotoxic, full curve]"},
      {"measurement": "Potency", "setting": "[2]", "result": "inconclusive: 6.59 µM [cytotoxic, full curve]"},
      {"measurement": "Potency", "setting": "[3]", "result": "active: 13.2 µM"}
    ]},
    {"smiles": "O=C1CCCc2ccccc21", "values": [
      {"measurement": "Potency", "setting": "[1]", "result": "inactive"},
      {"measurement": "Potency", "setting": "[4]", "result": "inactive"}
    ]},
    {"smiles": "O=C(NCC1CCCCN1)c1cc(OCC(F)(F)F)ccc1OCC(F)(F)F", "note": "(stereo unspecified)", "values": [
      {"measurement": "Potency", "setting": "[1]", "result": "inconclusive: 24.1 µM [cytotoxic, partial curve]"},
      {"measurement": "Potency", "setting": "[2]", "result": "inconclusive: 38.2 µM [cytotoxic, partial curve] and inconclusive: 19 µM [cytotoxic, partial curve, poor fit]"},
      {"measurement": "Potency", "setting": "[5]", "result": "inactive"}
    ]},
    {"smiles": "CN(C)C(=O)NC1(c2ccccc2)CCN(CCC[C@]2(c3ccc(Cl)c(Cl)c3)CCCN(C(=O)c3ccccc3)C2)CC1", "values": [
      {"measurement": "Potency", "setting": "[1]", "result": "inconclusive: 11.7 µM [cytotoxic, partial curve, poor fit]"},
      {"measurement": "Potency", "setting": "[2]", "result": "inconclusive: 11.7 µM [cytotoxic, partial curve, poor fit]"},
      {"measurement": "Potency", "setting": "[5]", "result": "inconclusive: 11.7 µM [activator, single point]"}
    ]},
    {"smiles": "CCCCS(=O)(=O)N[C@@H](Cc1ccc(OCCCCC2CCNCC2)cc1)C(=O)O", "values": [
      {"measurement": "Potency", "setting": "[1]", "result": "inactive"},
      {"measurement": "Potency", "setting": "[6]", "result": "inconclusive: 0.0849 µM [activator, partial curve, poor fit]"}
    ]},
    {"smiles": "CCCSc1ccc2nc(NC(=O)OC)[nH]c2c1", "values": [
      {"measurement": "Potency", "setting": "[1]", "result": "inconclusive: 3.47 µM [cytotoxic, partial curve, poor fit]"},
      {"measurement": "Potency", "setting": "[2]", "result": "inconclusive: 275 nM [cytotoxic, full curve] and inconclusive: 338 nM [cytotoxic, full curve]"},
      {"measurement": "Potency", "setting": "[5]", "result": "inconclusive: 1.55 µM [activator, full curve, poor fit] and active: 1.34 µM"}
    ]}
  ]
}
